Data taken from the supplement of paper PMC12217912.
The other results are listed elsewhere or left out. Sequences were assembled here from the parent chain. Values near 0.05 are background.

B1: TEV protease; numbered along this chain (parent)
chain: MGESLFKGPRDYNPISSSICHLTNESDGHTTSLYGIGFGPFIITNKHLFRRNNGTLVVQSLHGVFKVKDTTTLQQHLVDGRDMIIIRMPKDFPPFPQKLKFREPQREERICLVTTNFQTKSMSSMVSDTSCTFPSGDGIFWKHWIQTKDGQCGSPLVSTRDGFIVGIHSASNFTNTNNYFTSVPKNFMELLTNQEAQQWVSGWRLNADSVLWGGHKVFMVKPEEPFQPVKEATQL

Variants of: B1
Assay: raw area under fraction-flipped curve 0-4 h after induction (AUC4h, not background-subtracted), DNA-recorder readout of cleavage of the substrate (dimensionless); higher = more cleavage of the substrate by the protease variant
Conditions: temperature: 34 °C; time window: 0-4 h after rhamnose induction
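Also: Bxb1 expression induced with 0.2% (w/v) L-rhamnose at OD600 near 0.5, cultures sampled hourly, flipped fraction per protease–substrate barcode pair counted by paired-end Illumina sequencing.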

Row | Variant | area with substrate ECLYFQS | area with substrate EILYFQS | area with substrate EMLYFQS | area with substrate ERLYFQS | area with substrate ESLYFQS | area with substrate EVLYFQS | area with substrate EWLYFQS | area with substrate EYLYFQS | area with substrate EELYFQS | area with substrate EFLYFQS
1 | F163Y | 0.155 | 0.103 | 0.125 | 0.0971 | 0.108 | 0.0874 | 0.112 | 0.108 | – | –
2 | V165L | 0.103 | – | – | 0.119 | – | – | – | – | 0.109 | –
3 | V165M | 0.0744 | 0.0739 | 0.109 | – | 0.0613 | – | – | – | 0.0918 | 0.0456
4 | S169K | 0.0214 | – | – | – | – | – | – | – | – | –
5 | A170K | 0.0642 | 0.0336 | 0.06 | – | – | – | 0.0538 | – | – | 0.0776
6 | S171K | 0.0913 | – | – | – | 0.0848 | 0.0655 | – | – | – | –
7 | S171Y | 0.0706 | – | – | – | 0.0612 | 0.0681 | 0.0458 | 0.0606 | – | –
8 | N172H | 0.0388 | – | – | – | – | – | – | – | 0.0599 | –
9 | N172M | 0.151 | – | – | – | – | – | – | – | – | –
10 | N172V | 0.0594 | 0.038 | – | 0.0707 | 0.0823 | 0.0397 | 0.0682 | – | 0.0642 | –
11 | N172W | 0.0452 | – | – | – | – | – | – | – | 0.0593 | –
12 | T174G | 0.0789 | 0.0871 | – | 0.116 | 0.0748 | 0.0781 | 0.106 | – | 0.0896 | –
13 | N175Q | 0.101 | 0.115 | – | – | – | 0.142 | – | 0.132 | – | –
14 | T176Q | 0.095 | – | – | – | – | – | – | – | 0.0916 | –
15 | N177M | 0.101 | – | 0.125 | 0.112 | – | – | – | – | – | 0.123
16 | N177Q | 0.14 | 0.147 | – | – | 0.127 | – | 0.116 | – | – | –
17 | N177T | 0.151 | 0.143 | 0.117 | 0.129 | 0.173 | – | 0.152 | – | – | –
18 | N178M | 0.145 | – | – | 0.204 | – | – | 0.177 | 0.2 | 0.207 | –
19 | F180S | 0.085 | 0.078 | – | 0.081 | 0.0856 | – | – | 0.0588 | – | –
20 | T181C | 0.0986 | 0.0983 | – | – | 0.112 | – | – | – | – | –
21 | T181E | 0.0574 | 0.0454 | – | 0.0679 | – | – | – | – | – | –
22 | T181H | 0.0561 | 0.0564 | – | – | 0.0761 | – | – | – | – | 0.0654

Row | Variant | area with substrate ECLYFQS | area with substrate EILYFQS | area with substrate EMLYFQS | area with substrate ERLYFQS | area with substrate ESLYFQS | area with substrate EVLYFQS | area with substrate EWLYFQS | area with substrate EYLYFQS | area with substrate EELYFQS | area with substrate EFLYFQS
23 | T181K | 0.0576 | 0.0286 | 0.0863 | – | 0.0589 | – | 0.0497 | – | – | –
24 | T181V | 0.093 | 0.0735 | 0.101 | 0.0861 | 0.0888 | 0.0825 | – | 0.0831 | 0 | –
25 | S182E | 0.0758 | 0.0849 | 0.074 | 0.0635 | 0.0998 | – | – | 0.0659 | – | –
26 | S182F | 0.0471 | 0.0716 | – | 0.0606 | 0.0667 | – | 0.0537 | – | 0.0529 | –
27 | S182H | 0.0755 | 0.0645 | 0.0809 | – | 0.0796 | 0.0613 | – | – | – | 0.0878
28 | V183G | 0.0658 | 0.0423 | – | 0.0656 | 0.0521 | 0.0564 | – | 0.0523 | – | –
29 | N186T | 0.119 | 0.0911 | – | – | 0.0884 | – | – | – | 0.148 | –
30 | F187A | 0.102 | 0.0776 | – | 0.076 | 0.071 | 0.0744 | – | 0.0943 | – | 0.0814
31 | F187G | 0.0706 | 0.0481 | 0.0691 | 0.0664 | 0.0618 | – | – | – | – | 0.0644
32 | M188R | 0.113 | – | 0.0733 | – | 0.0846 | – | – | – | 0.0897 | –
33 | E189L | 0.102 | – | – | 0.0781 | 0.102 | – | – | – | 0.0972 | 0.0935
34 | E189Y | 0.0929 | 0.0873 | 0.0553 | – | 0.0999 | – | – | – | – | –
35 | L190P | 0.0985 | 0.0693 | – | 0.0831 | 0.0859 | 0.081 | 0.0634 | – | – | –
36 | L190T | 0.138 | 0.113 | – | – | 0.138 | 0.0872 | – | – | – | 0.132
37 | L191Q | 0.0477 | 0.0523 | 0.0635 | – | 0.0574 | – | – | – | 0.0903 | 0.0671
38 | N193K | 0.0832 | 0.0955 | 0.105 | – | – | – | – | 0.0554 | 0.123 | –
39 | Q194C | 0.0895 | 0.0828 | 0.144 | 0.0904 | 0.0827 | – | 0.11 | – | – | –
40 | Q194I | 0.0949 | – | 0.102 | – | – | – | 0.15 | 0.104 | – | –
41 | Q194W | 0.102 | 0.0837 | – | – | 0.0853 | 0.0853 | – | – | – | –
42 | E195S | 0.146 | 0.0946 | – | 0.0879 | – | 0.127 | – | – | – | –
43 | Q197I | 0.103 | 0.108 | 0.143 | 0.11 | 0.107 | 0.1 | 0.139 | – | – | –
44 | Q198G | 0.0878 | 0.064 | – | 0.104 | 0.0083 | 0.0854 | 0.082 | – | – | 0.0948

Same assay, conditions: temperature: 34 °C; time window: 0-4 h after rhamnose induction

Row | Variant | area with substrate EHLYFQS | area with substrate ETLYFQS | area with substrate EGLYFQS | area with substrate EKLYFQS | area with substrate ELLYFQS | area with substrate EPLYFQS | area with substrate EQLYFQS | area with substrate EDLYFQS
45 | V165M | 0.0589 | – | – | – | – | – | – | –
46 | S169K | – | 0.0068 | – | – | – | – | – | –
47 | A170K | – | 0.0708 | 0.0617 | 0.0543 | 0.0561 | – | – | –
48 | S171K | – | – | – | 0.0831 | 0.103 | 0.103 | 0.088 | –
49 | S171Y | – | – | – | – | 0.0593 | 0.0552 | 0.0477 | –
50 | N172V | 0.0553 | – | – | – | – | 0.0468 | 0.0664 | 0.0452
51 | T174G | – | 0.074 | 0.0799 | – | 0.0738 | 0.099 | 0.0877 | –
52 | N175Q | – | – | – | 0.0913 | – | – | 0.139 | –
53 | T176Q | 0.0631 | – | – | – | – | – | 0.0858 | –
54 | N177M | – | – | – | – | – | – | 0.0857 | –
55 | N177Q | – | – | – | – | 0.0768 | – | 0.142 | –
56 | N177T | – | – | – | 0.167 | 0.149 | – | 0.184 | 0.171
57 | N178M | 0.175 | – | 0.167 | – | – | – | – | –
58 | F180S | – | – | – | – | – | – | 0.0659 | –
59 | T181C | – | – | 0.0579 | – | – | – | – | –
60 | T181E | – | 0.0653 | 0.0545 | – | 0.0601 | – | – | –
61 | T181H | – | – | – | 0.0834 | – | 0.0504 | 0.03 | 0.0444
62 | T181K | – | – | – | 0.0708 | – | – | – | –
63 | T181V | 0.0999 | – | – | 0.0747 | 0.0941 | – | – | –
64 | S182E | – | 0.0821 | – | 0.106 | 0.0722 | 0.0863 | 0.0704 | –

Row | Variant | area with substrate EHLYFQS | area with substrate ETLYFQS | area with substrate EGLYFQS | area with substrate EKLYFQS | area with substrate ELLYFQS | area with substrate EPLYFQS | area with substrate EQLYFQS | area with substrate EDLYFQS
65 | S182F | – | – | 0.0416 | 0.0695 | – | – | – | –
66 | S182H | – | – | – | – | 0.0688 | 0.0879 | – | –
67 | V183G | 0.0657 | 0.0599 | 0.0358 | 0.039 | – | – | 0.0526 | –
68 | N186T | – | – | – | 0.122 | 0.0933 | – | 0.0861 | –
69 | F187A | 0.0804 | – | 0.0689 | 0.0641 | – | 0.0892 | 0.109 | –
70 | F187G | 0.0654 | 0.0718 | – | 0.0449 | – | – | – | 0.0705
71 | M188R | – | – | – | – | 0.0436 | 0.107 | – | –
72 | E189L | 0.101 | – | – | 0.089 | 0.0693 | 0.114 | 0.121 | –
73 | E189Y | 0.0828 | – | 0.105 | 0.0931 | – | – | 0.141 | –
74 | L190P | – | – | 0.0727 | – | – | – | 0.108 | –
75 | L190T | – | 0.12 | – | 0.054 | – | – | 0.09 | –
76 | L191Q | 0.081 | – | – | 0.0533 | – | 0.0525 | – | 0.0618
77 | N193K | 0.0957 | – | – | 0.119 | 0.0813 | – | 0.101 | 0.108
78 | Q194C | – | – | – | – | 0.101 | – | 0.103 | 0.133
79 | Q194I | – | – | – | 0.0815 | – | 0.121 | – | –
80 | Q194W | 0.143 | – | – | 0.102 | – | – | – | –
81 | E195S | – | 0.137 | 0.0963 | – | – | 0.0865 | – | –
82 | Q197I | – | – | – | 0.132 | – | – | – | 0.068
83 | Q198G | 0.101 | 0.0873 | 0.106 | – | – | – | 0.0982 | –
